From the supplement of paper PMC11417369
The list shows a part of the results.

What follows are sequences tested on PfAP2-HC AP2 domain (GST-tagged) (assay: gcPBM binding intensity (ln(normalized median fluorescence intensity)); higher = stronger DNA binding).
Method in brief: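 An Agilent 4 × 180k array of primer-extended double-stranded 36-bp intergenic genomic probes, with negative controls, was incubated for 1 h with GST-tagged P. falciparum DNA-binding domains expressed in E. coli. Alexa488 anti-GST antibody detected bound protein, scanned at 488 nm. Binding intensity is the highest Masliner-normalised natural-log median intensity across replicate spots of either probe orientation.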
With “TAAATAAATAAAAAAACACACATATAAATATAAATA [CACACA_site7815]” the “gcPBM binding intensity (ln)” value was 9.93.
For “TAAACAGACATACATACACACATACATACAGACATA [CACACA_site6997]”, the “gcPBM binding intensity (ln)” value was 10.6.
In the case of “AAAAAAAAAGTATATATATATTTAAGGAATTCTCTC [GTGCAC_negctrl_site454]”, the “gcPBM binding intensity (ln)” value is reported as 9.56.
With “CATATACTCGGACACACACACACACCGACAAAAAAA [CACACA_site4433]” the “gcPBM binding intensity (ln)” value was 11.1.
In the case of “TTTATAGTTTTTAATAGTACACATATTTTTAAGTAT [XGTACX_site5498]”, the “gcPBM binding intensity (ln)” value is reported as 9.73.
“TTTTGTGGAGGATGGTGTACGGTATTGTATTATTAC [XGTACX_site1942]” was tested, and the “gcPBM binding intensity (ln)” value was 10.3.
For “TATCATAAAATATGTAGTACGTATATATATAAAAAT [XGTACX_site5455]”, the “gcPBM binding intensity (ln)” value was 9.88.
With “AATATATAGCTAAAAACACACAAATATATACTCATA [CACACA_site5904]” the “gcPBM binding intensity (ln)” value was 9.93.
With “ATACATTTTTTTTTCACACATATATATATATTTAAT [CACACA_site5995]” the “gcPBM binding intensity (ln)” value was 9.87.
In the case of “CTCACGTAGCTTGATGCATGCAAACTTGAGTAAAAG [TGCATGCA_site409]”, the “gcPBM binding intensity (ln)” value is reported as 9.47.
In the case of “TTTATAAAATTTATTGCACACAATTATTTTATAATT [CACACA_site2489]”, the “gcPBM binding intensity (ln)” value is reported as 9.96.
In the case of CAACCTTTTTTGTTGGTGCATAATTTTTTTTTCTTT, the “gcPBM binding intensity (ln)” value is reported as 9.5.
In the case of “ATATATATATATTGCACACATATAAATATATATATT [CACACA_site807]”, the “gcPBM binding intensity (ln)” value is reported as 9.76.
For “TTTTATTTTTTCTCACGTACAAATATATAATTTTTT [XGTACX_site6952]”, the “gcPBM binding intensity (ln)” value was 9.6.
In the case of “TACATATGGCACATATGTACACACGTATAGATAATA [XGTACX_site4123]”, the “gcPBM binding intensity (ln)” value is reported as 9.75.
In the case of “ATGAATATAAAATATACACACTTATATATCGAATGA [CACACA_site6240]”, the “gcPBM binding intensity (ln)” value is reported as 9.72.
In the case of “AATATATCCTATTCGAACAAAAATACATGCACATAT [CACACA_negctrl_site1058]”, the “gcPBM binding intensity (ln)” value is reported as 9.65.
In the case of “GTATATATATATATATGTACATATATGTAGATATAT [XGTACX_site5431]”, the “gcPBM binding intensity (ln)” value is reported as 9.91.
With “ATATGTACGCAAGGTGCACACTGGTGCATTAAAAAA [CACACA_site1801]” the “gcPBM binding intensity (ln)” value was 9.91.
“TTTTTGTATCCTTCTTCTTTTTCCAGACTACATTAT [XGTACX_negctrl_site216]” was tested, and the “gcPBM binding intensity (ln)” value was 9.71.
With “AAAAAAAAAATGTGCACACGCGTACACCCAAAAAAA [CACACA_site5149]” the “gcPBM binding intensity (ln)” value was 9.86.
In the case of “TATAAAAATAATATTACACACATGTAAAATGGCTGT [CACACA_site5755]”, the “gcPBM binding intensity (ln)” value is reported as 9.8.
With “TCTCAGTAAATTAAATGTACATAAGGGAGGAACTAT [XGTACX_site8045]” the “gcPBM binding intensity (ln)” value was 9.69.
In the case of “TTGTGGATTTTGTGCGCACACACATGCAAAAAGAAA [CACACA_site1147]”, the “gcPBM binding intensity (ln)” value is reported as 10.
With “TAAATATATGCATATACACACAACAAAAAAATATAT [CACACA_site2341]” the “gcPBM binding intensity (ln)” value was 10.1.
For “CACAGACATATATATACACACTTTTATTTAAATAAC [CACACA_site4962]”, the “gcPBM binding intensity (ln)” value was 9.81.
With “AACATATAAATAAACTGTACATATATATATATATAT [XGTACX_site1056]” the “gcPBM binding intensity (ln)” value was 9.68.
In the case of “AATATTACGTGTTTGGTATTTTTCGATGTTGGCAGG [XGTACX_negctrl_site59]”, the “gcPBM binding intensity (ln)” value is reported as 9.71.
In the case of “ATATTATTTTAAAAAAGTACATTTTTAAGAATTCTT [XGTACX_site6630]”, the “gcPBM binding intensity (ln)” value is reported as 9.37.
For “ATAAAATTTATATAAGCACACAAATATATATTTATA [CACACA_site9083]”, the “gcPBM binding intensity (ln)” value was 9.7.
In the case of “GTAAAGGCTATATATGTGCACATTTTTTTTTTTTTT [GTGCAC_site9925]”, the “gcPBM binding intensity (ln)” value is reported as 9.86.
With “AATTGCATAATATATTCACACATTTTTAAGTGATAC [CACACA_site5679]” the “gcPBM binding intensity (ln)” value was 9.62.
For “TTATGGTTATACATATGTACATATATATATATATAT [XGTACX_site1494]”, the “gcPBM binding intensity (ln)” value was 9.77.
For “TATCATTATGTAGAAACACACATAAGCTTCGGTTCA [CACACA_site2766]”, the “gcPBM binding intensity (ln)” value was 9.58.
“GGGGAAAAAAAAAAAGGAAAAAGAAAAAAAAAAAAA [GTGCAC_negctrl_site489]” was tested, and the “gcPBM binding intensity (ln)” value was 8.87.
In the case of “TTAATTATATATAAAAGTACTTATTTTTCCATATAA [XGTACX_site3033]”, the “gcPBM binding intensity (ln)” value is reported as 9.31.
In the case of “TAATAGGAAATTATAGGTACACATACAAATAAATAA [XGTACX_site3587]”, the “gcPBM binding intensity (ln)” value is reported as 9.83.
For “AATAATAATATATGTAGTACACATTTCCATTATGTT [XGTACX_site3708]”, the “gcPBM binding intensity (ln)” value was 9.71.
“AAAAAAAAAAAAAAAACACACATTTCTTTTTCATAT [CACACA_site11]” was tested, and the “gcPBM binding intensity (ln)” value was 9.81.
With “ATTTATATATTGCCCACACACATGTGATTATTTATA [CACACA_site1714]” the “gcPBM binding intensity (ln)” value was 10.
For ATATTAAAAAGAAGTGTGCGCAAAACATTAACTTGA, the “gcPBM binding intensity (ln)” value was 10.3.
“TAAATAAACCTGACTTGTACATGTAAAATAAATATA [XGTACX_site1667]” was tested, and the “gcPBM binding intensity (ln)” value was 9.8.
With “AATGGATGGTCCAAATGTACATATATATATATATAT [XGTACX_site4800]” the “gcPBM binding intensity (ln)” value was 9.85.
In the case of “AGAAAAAATAAAAATAGTACTCAAAAAATTATGAAT [XGTACX_site4908]”, the “gcPBM binding intensity (ln)” value is reported as 9.68.
